Experimental data taken from article PMC8533726, “Quantitative Super-Resolution Imaging for the Analysis of GPCR Oligomerization” (Biomolecules, 2021).

Target: the molecule itself
Assay: qPAINT (quantitative DNA-PAINT single-molecule super-resolution microscopy); fixed, permeabilised AsPC-1 cells labelled with DNA-coupled anti-P2Y2 antibody; TIRF; DBSCAN clusters of localisations, copy number per cluster from dark times (qi1 0.012 Hz); control cells, cells treated with 100 uM ATP (agonist) or 5 uM AR-C 118925XX (antagonist) for 1 h

B1: purinergic receptor Y2 (P2Y2) (receptor, human (endogenous in AsPC-1), UniProt P41231 1-377, looked up)
chain: MAADLGPWNDTINGTWDGDELGYRCRFNEDFKYVLLPVSYGVVCVPGLCLNAVALYIFLCRLKTWNASTTYMFHLAVSDALYAASLPLLVYYYARGDHWPFSTVLCKLVRFLFYTNLYCSILFLTCISVHRCLGVLRPLRSLRWGRARYARRVAGAVWVLVLACQAPVLYFVTTSARGGRVTCHDTSAPELFSRFVAYSSVMLGLLFAVPFAVILVCYVLMARRLLKPAYGTSGGLPRAKRKSVRTIAVVLAVFALCFLPFHVTRTLYYSFRSLDLSCHTLNAINMAYKVTRPLASANSCLDPVLYFLAGQRLVRFARDAKPPTGPSPATPARRRLGLRRSDRTDMQRIEDVLGSSEDSRRTESTPAGSENTKDIRL
notes: purinergic receptor Y2 (P2Y2), a rhodopsin-like GPCR, endogenously expressed in the pancreatic cancer cell line AsPC-1; Detected in fixed cells with a DNA-labelled anti-P2Y2 antibody (APR-010, Alomone labs), which is only a tool of the experiment; also called P2Y2 receptor; source: endogenous, AsPC-1 cells (fixed, permeabilised)
stoichiometry N: ≥ 3
